In patent US20220348686A1 (Memorial Sloan Kettering, published 2022):

Experiments:
Canine STEAP1 = target: T1, Canine STEAP1 (canine, UniProt Q9UHE8 1-339 (human entry)); test: FACS staining of canine osteosarcoma cell lines
T1 construct: Endogenous on canine osteosarcoma cell lines D-17, DSN, DSDh and DAN; also called dog STEAP1

Mouse STEAP1 = target: T2, Mouse STEAP1 (mouse, UniProt Q9CWR7 1-339); test: cell binding assays, FACS
T2 construct: Transfected into HEK293 cells with a lentiviral vector (GFP part of the transgene); also called STP1m
Description: To accurately determine the epitope of BC261 BsAb, the following four STEAP1 variants were constructed: human STEAP1 (STP1h), mouse STEAP1 (STP1m), mouse STEAP1 with human 2nd ECD (STP1mH2), and mouse STEAP1 with human 3rd ECD (STP1mH3). To express the STEAP1 variants on the cell surface, these variants were transfected into HEK293 cells using a lentiviral vector. GFP was a part of the transgene and used as a selection marker to FACS sort GFP (+) cells. […] Since GFP was a part of the transgene, GFP expression was an indirect measure of STEAP1 expression.
The variants were stained using the BC261 BsAb and binding was detected using flow cytometry.

Human STEAP1 = Human STEAP1 (human, UniProt Q9UHE8 1-339); test: cell-based or functional assay
Chain of Human STEAP1 (Q9UHE8 whole entry): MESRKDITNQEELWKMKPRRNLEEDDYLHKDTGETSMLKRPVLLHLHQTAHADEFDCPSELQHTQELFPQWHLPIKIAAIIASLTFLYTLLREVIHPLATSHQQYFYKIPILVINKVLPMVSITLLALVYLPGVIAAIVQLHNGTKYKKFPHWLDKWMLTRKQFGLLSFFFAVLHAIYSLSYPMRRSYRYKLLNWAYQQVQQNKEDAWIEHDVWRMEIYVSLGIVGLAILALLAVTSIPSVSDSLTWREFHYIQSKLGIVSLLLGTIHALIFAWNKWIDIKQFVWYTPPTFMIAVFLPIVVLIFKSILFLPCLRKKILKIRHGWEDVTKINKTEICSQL

Chain of Canine STEAP1 (Q9UHE8 other isoform, or with tags, fused parts or gaps): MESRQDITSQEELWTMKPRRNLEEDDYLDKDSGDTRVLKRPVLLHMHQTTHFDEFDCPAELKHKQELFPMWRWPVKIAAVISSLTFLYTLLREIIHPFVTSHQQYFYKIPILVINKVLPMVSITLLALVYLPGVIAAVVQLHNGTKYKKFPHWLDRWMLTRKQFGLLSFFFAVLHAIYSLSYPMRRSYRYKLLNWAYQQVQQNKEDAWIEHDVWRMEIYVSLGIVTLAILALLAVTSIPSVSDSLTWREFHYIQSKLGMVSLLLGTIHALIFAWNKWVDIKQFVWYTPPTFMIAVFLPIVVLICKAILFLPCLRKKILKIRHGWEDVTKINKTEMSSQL
Chain of Mouse STEAP1 (Q9CWR7 whole entry): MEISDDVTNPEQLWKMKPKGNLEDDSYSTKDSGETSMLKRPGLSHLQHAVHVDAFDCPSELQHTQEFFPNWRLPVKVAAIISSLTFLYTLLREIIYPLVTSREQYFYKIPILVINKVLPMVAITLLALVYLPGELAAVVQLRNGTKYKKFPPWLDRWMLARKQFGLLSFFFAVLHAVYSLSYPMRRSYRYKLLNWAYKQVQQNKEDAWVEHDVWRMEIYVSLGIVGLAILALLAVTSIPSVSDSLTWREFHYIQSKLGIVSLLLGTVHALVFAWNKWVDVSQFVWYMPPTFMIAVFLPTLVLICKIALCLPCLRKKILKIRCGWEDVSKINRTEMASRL

- binding result (Canine STEAP1): binds
- binding result (Mouse STEAP1): no binding
B1: BiClone261 (BC261) STEAP1-CD3 BsAb (bispecific antibody)
heavy: DVQVQESGPGLVKPSQTLSLTCTVTGYSITSDYAWNWIRQPPGKGLEWMGYISNSGSTSYNPSLKSRITISRDTSKNQFSLKLSSVTAADTAVYYCARERNYDYDDYYYAMDYWGQGTTLTVSAASTKGPSVFPLAPSSKSTSGGTAALGCLVKDYFPEPVTVSWNSGALTSGVHTFPAVLQSSGLYSLSSVVTVPSSSLGTQTYICNVNHKPSNTKVDKRV[no letters for human IgG1 Fc with N297A K322A (EU numbers)]
light: DIVMTQSPDSLAVSVGERVTMNCKSSQSLLYRSNQKNYLAWYQQKPGQPPKLLIYWASTRESGVPDRFSGSGSGTDFTLTISSVQAEDVAVYYCQQYYNYPRTFGGGTKVEIKRTVAAPSVFIFPPSDEQLKSGTASVVCLLNNFYPREAKVQWKVDNALQSGNSQESVTEQDSKDSTYSLSSTLTLSKADYEKHKVYACEVTHQGLSSPVTKSFNRGECTSGGGGSGGGGSGGGGSQVQLVQSGGGVVQPGRSLRLSCKASGYTFTRYTMHWVRQAPGKCLEWIGYINPSRGYTNYNQKFKDRFTISRDNSKNTAFLQMDSLRPEDTGVYFCARYYDDHYSLDYWGQGTPVTVSSGGGGSGGGGSGGGGSGGGGSGGGGSGGGGSDIQMTQSPSSLSASVGDRVTITCSASSSVSYMNWYQQTPGKAPKRWIYDTSKLASGVPSRFSGSGSGTDYTFTISSLQPEDIATYYCQQWSSNPFTFGCGTKLQITR
notes: IgG-scFv format: X120_VH-2 heavy chain; X120_VL-2 light chain extended by a (G4S)3 linker and huOKT3 anti-CD3 scFv; also called anti-STEAP1-BsAb BC261; L2+H2
- EC50, T cell cytotoxicity, 4-hour 51Cr release assay, LNCaP-AR cells (Human STEAP1): 1.69 pM and 0.000345 µg/mL
- EC50, T cell cytotoxicity, 4-hour 51Cr release assay, TC32 cells (Human STEAP1): 3.6 pM and 0.0009 µg/mL

“And” between values parts separate entries of the source, which are not always exact repeats. Equal entries are not always repeated.
